{
  "source": "PubChem BioAssay AID360",
  "about": "(National Center for Advancing Translational Sciences (NCATS), 2006)",
  "note": "Among all 48,000 compounds or so, about 550 (1.1%) were called active. Another 4% or so got no clear call; they are omitted. Cut-off read from the data, not from the text of the source: active = potency below about 15 µM; inconclusive = mostly about 16 µM to 33 µM; inactive = weaker than that. The list shows a part of the results. Potency is the fitted concentration of half-maximal effect.",
  "data": [
    {"biological_target": "Lysosomal acid glucosylceramidase (Homo sapiens) (UniProt P04062)", "sequence (P04062 whole entry, looked up)": "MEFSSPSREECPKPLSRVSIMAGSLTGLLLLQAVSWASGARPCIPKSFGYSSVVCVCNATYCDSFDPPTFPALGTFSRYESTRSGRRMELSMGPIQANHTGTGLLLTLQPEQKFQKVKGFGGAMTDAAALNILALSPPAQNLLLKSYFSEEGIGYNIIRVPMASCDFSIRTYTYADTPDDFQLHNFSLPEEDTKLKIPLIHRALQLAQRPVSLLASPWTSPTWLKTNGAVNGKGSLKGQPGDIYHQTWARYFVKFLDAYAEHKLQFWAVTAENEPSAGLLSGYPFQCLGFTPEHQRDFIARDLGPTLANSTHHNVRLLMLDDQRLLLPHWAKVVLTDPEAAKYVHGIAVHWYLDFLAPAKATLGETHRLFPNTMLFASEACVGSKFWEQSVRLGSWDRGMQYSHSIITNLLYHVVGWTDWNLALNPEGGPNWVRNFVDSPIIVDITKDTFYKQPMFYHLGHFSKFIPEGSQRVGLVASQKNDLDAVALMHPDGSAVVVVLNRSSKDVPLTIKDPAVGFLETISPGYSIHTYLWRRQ", "test": "Glucocerebrosidase;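 note: the screen sought inhibitors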", "conditions": "purified enzyme, resorufin glucoside fluorescence (screen aimed at inhibitors), 20 min", "description": "NCGC Assay Overview: Beta-glucocerebrosidase catalyzes the hydrolysis of beta-glucocerebroside to glucose and ceramide. The inherited deficiency of beta-glucocerebrosidase results in Gaucher disease, which is characterized by a wide variety of symptoms including hepatosplenomegaly, anemia, thrombocytopenia, bony lesions and bone marrow infiltration with characteristic storage cells, known as Gaucher cells. There are also forms of the disorder affecting the central nervous system. Patients with the same genotypes can manifest with diverse clinical presentations and it is believed that improper folding and trafficking of beta-glucocerbrosidase may contribute to the phenotypes observed. Low molecular weight molecules, acting as chaperones, may potentially restore trafficking of misfolded beta-glucocerebrosidase from the endoplasmic reticulum to the lysosomes, thereby enhancing functional lysosomal beta-glucocerebrosidase activity. Using normal beta-glucocerebrosidase, an assay was developed to screen for small molecule inhibitors that could potentially act as molecular chaperones on the mutant forms [developed with NIH investigator Dr. Ellen Sidransky's laboratory]. Two pro-fluorescent substrates were chosen for two screens against a small molecule library. One beta-glucocerebrosidase assay used Resorufin beta-D-Glucopyranoside (Marker Gene Technology Inc.), generating a red fluorescent product. The second assay used Fluorescein di-beta-D-Glucopyranoside, generating a blue fluorescent product. […] The IC50 values of Conduritol B Epoxide, a known glucocerebrosidase inhibitor, were determined to be 87.5 uM and 117 uM, respectively. The use of two difference pro-fluorescent substrates in the screens helped to eliminate false positives. All compounds were screened in a titration series resulting in AC50s (e.g., IC50s or EC50s).\nNCGC Assay Protocol Summary: Both enzyme and substrate were diluted in buffer composed of 50mM citric acid/KH2PO4, 10mM sodium taurocholate and 0.01% tween-20 at pH 5.9. The final concentration of the enzyme was 0.2 nM in both assays. The compound library was titrated in 7 to 15 concentrations for the primary screens with a final concentration ranging from 0.6 nM to 50 uM. This particular assay protocol is for the \"red\" substrate, and it was performed in 1536-well plate format as follows: Red fluorescence substrate assay: 2 uL enzyme 23 nL compound 1 uL substrate (final concentration of 30 uM) Incubate at room temperature (RT) for 20 minutes Read the plate in Viewlux plate reader (Ex=548(7) and Em=600(10)).", "values": [
      {"smiles": "Cc1c(C(=O)N2CCC3(CC2)OCCO3)oc2ccccc12", "Potency": "inactive: > 76.9 µM"},
      {"smiles": "O=C(c1sc2ccccc2c1Cl)N1CCC2(CC1)OCCO2", "Potency": "inactive: > 76.9 µM"},
      {"smiles": "CCCCCCn1c(=O)c(C(=O)Nc2c(C)n(C)n(-c3ccccc3)c2=O)c(O)c2ccccc21", "Potency": "inactive: > 76.9 µM"},
      {"smiles": "c1ccc(C(OCCN2CCNCC2)c2ccccc2)cc1", "Potency": "inactive: > 76.9 µM"},
      {"smiles": "Cn1c(=O)cc(OCC(=O)N2CCC3(CC2)OCCO3)c2ccccc21", "Potency": "inactive: > 76.9 µM"},
      {"smiles": "CC(=NCc1ccco1)c1c(O)n(C)c(=O)n(C)c1=O", "Potency": "inactive: > 76.9 µM"},
      {"smiles": "FC(F)(F)/C(=N\\P(=S)(N1CCOCC1)N1CCOCC1)N1CCOCC1", "Potency": "inactive: > 76.9 µM"},
      {"smiles": "CC(=NCCCN1CCCCC1)c1c(O)n(Cc2ccccc2)c(=O)[nH]c1=O", "Potency": "inactive: > 76.9 µM"},
      {"smiles": "O=P(O)(O)Cc1ccccc1OP(=O)(c1ccccc1)c1ccccc1", "Potency": "inactive: > 76.9 µM"},
      {"smiles": "Cc1cccn2c(NCC3CCCO3)c(C(C)C)nc12", "note": "(stereo not drawn)", "Potency": "inactive: > 76.9 µM"},
      {"smiles": "O=C(Cc1ccccc1)N1CCN(Cc2c[nH]c3ccccc23)CC1", "Potency": "inactive: > 76.9 µM"},
      {"smiles": "Cc1ccc(-n2c(O)c(C=NC3CCCCC3N)c(=O)[nH]c2=O)cc1C", "note": "(stereo not drawn)", "Potency": "inactive: > 76.9 µM"},
      {"smiles": "Cc1ccc(S(=O)(=O)N2CCCC(C(=O)N3CCC4(CC3)OCCO4)C2)cc1", "note": "(stereo not drawn)", "Potency": "inactive: > 76.9 µM"},
      {"smiles": "O=C1CCCC2C3CCCN4CCCC(CN12)C34", "note": "(stereo not drawn)", "Potency": "inactive: > 76.9 µM"},
      {"smiles": "CC(C)CC(NC(=O)C1CCCCC1)C(=O)N1CCC2(CC1)OCCO2", "note": "(stereo not drawn)", "Potency": "inactive: > 76.9 µM"},
      {"smiles": "Cc1cc2c(s1)NC(=O)CN=C2c1cccs1", "Potency": "inactive: > 76.9 µM"},
      {"smiles": "CC(C(N)=O)N1CC(c2ccc(Cl)cc2)CC1=O", "note": "(stereo not drawn)", "Potency": "inactive: > 76.9 µM"},
      {"smiles": "CCOc1ccccc1-n1c(O)c(C=NCc2ccc3c(c2)OCO3)c(=O)[nH]c1=O", "Potency": "inactive: > 76.9 µM"},
      {"smiles": "CC(=NCc1cccnc1)c1c(O)n(Cc2ccccc2)c(=O)[nH]c1=O", "Potency": "inactive: > 76.9 µM"},
      {"smiles": "COC(=O)c1ccccc1OP1(=O)COc2ccccc2OC1", "Potency": "inactive: > 76.9 µM"},
      {"smiles": "CC(=O)C1C(=O)NC23CCCCC2C1c1ccccc1O3", "note": "(stereo not drawn)", "Potency": "inactive: > 76.9 µM"},
      {"smiles": "CC1=C(C(=O)Nc2ccccc2)SCCO1", "Potency": "inactive: > 76.9 µM"},
      {"smiles": "Cc1ccc(N2C(=O)NC(=O)C3(Cc4ccccc4N4CCCC43)C2=O)cc1", "note": "(stereo not drawn)", "Potency": "inactive: > 76.9 µM"},
      {"smiles": "CCOC(=O)C1=C(C)N(C)C2(C)CC1c1ccccc1O2", "note": "(stereo not drawn)", "Potency": "inactive: > 76.9 µM"},
      {"smiles": "CC(=NC1CCN(Cc2ccccc2)CC1)c1c(O)[nH]c(=O)[nH]c1=O", "Potency": "inactive: > 76.9 µM"},
      {"smiles": "O=C(c1ccc2nc(-c3ccco3)c(-c3ccco3)nc2c1)N1CCC2(CC1)OCCO2", "Potency": "inactive: > 76.9 µM"},
      {"smiles": "Cc1oc(-c2ccccc2F)nc1CS(=O)CC(=O)N1CCC2(CC1)OCCO2", "note": "(stereo not drawn)", "Potency": "inactive: > 76.9 µM"},
      {"smiles": "C=CCOC(=O)C1=C(C)OC(N)=C(C(=O)OCC)C12C(=O)N(CC(N)=O)c1ccccc12", "note": "(stereo not drawn)", "Potency": "inactive: > 76.9 µM"},
      {"smiles": "COc1ccc(CCN(C)Cc2ccncc2)cc1OC", "Potency": "inactive: > 76.9 µM"},
      {"smiles": "c1cncc(CNC2=NCCC2)c1", "Potency": "inactive: > 76.9 µM"},
      {"smiles": "Cc1oc2ccc(OC(=O)N(C)C)cc2c1C(=O)OC(C)C", "Potency": "inactive: > 76.9 µM"},
      {"smiles": "CCOC(=O)C(O)(c1ccc(N(CC)S(=O)(=O)c2ccccc2)cc1)C(F)(F)F", "note": "(stereo not drawn)", "Potency": "inactive"},
      {"smiles": "C=CCn1c(O)c(C(C)=NCCCO)c(=O)[nH]c1=O", "Potency": "inactive: > 76.9 µM"},
      {"smiles": "CCOC(=O)C(O)(c1ccc(NC(=O)c2ccco2)c(OC)c1)C(F)(F)F", "note": "(stereo not drawn)", "Potency": "inactive: > 76.9 µM"},
      {"smiles": "Cc1cccc(C2=NCC(=O)N(CC(=O)NCc3ccco3)c3sc4c(c32)CCCC4)c1", "Potency": "inactive: > 76.9 µM"},
      {"smiles": "O=C(c1cc(-c2cccnc2)nc2ccc(Br)cc12)N1CCC2(CC1)OCCO2", "Potency": "inactive: > 76.9 µM"},
      {"smiles": "Cc1cc(C)c(C2=NOC(O)(C(F)(F)F)C2)c(=O)[nH]1", "note": "(stereo not drawn)", "Potency": "inactive: > 76.9 µM"},
      {"smiles": "Cc1ccc(CS(=O)(=O)Cc2ccc(C(=O)N3CCC4(CC3)OCCO4)o2)cc1", "Potency": "inactive: > 76.9 µM"},
      {"smiles": "Cc1ccc(CN2C(=O)NC(=O)C3(Cc4c(nc5ccccn5c4=O)N4CCCCCC43)C2=O)cc1", "note": "(stereo not drawn)", "Potency": "inactive: > 76.9 µM"},
      {"smiles": "Nc1nnc(CCN2CCCCC2)s1", "Potency": "inactive: > 76.9 µM"},
      {"smiles": "CC(C)=CCC12CN3CCN(CC(C3)C1=O)C2", "Potency": "inactive: > 76.9 µM"},
      {"smiles": "CCCCN1C(=O)NC(=O)C2(Cc3ccccc3N3CCOCC32)C1=O", "note": "(stereo not drawn)", "Potency": "inactive: > 76.9 µM"},
      {"smiles": "CN(C)P1(N(C)C)=Nc2c(c(N)nn2C)C(c2ccccc2)=N1", "Potency": "inactive: > 76.9 µM"},
      {"smiles": "CCOC(=O)c1c(C)c(P(=S)(N2CCOCC2)N2CCOCC2)n(C)c1C", "Potency": "inactive: > 76.9 µM"},
      {"smiles": "CC(=O)c1c(C)n(CCCOC(C)C)c2ccc(O)cc12", "Potency": "inactive: > 76.9 µM"},
      {"smiles": "CCC1(CC)C(=O)NC(=Nc2cccc(C(F)(F)F)c2)NC1=O", "Potency": "inactive: > 76.9 µM"},
      {"smiles": "Cc1nc2ccccc2c(=O)n1-c1cccc(O)c1", "Potency": "inactive: > 76.9 µM"},
      {"smiles": "Cn1cccc1CNCCc1ccccc1F", "Potency": "inactive: > 76.9 µM"},
      {"smiles": "CCOC(=O)C1=C(N)OC2=C(C(=O)CCC2)C12C(=O)N1c3c(ccc(C)c32)C(C)=CC1(C)C", "note": "(stereo not drawn)", "Potency": "inactive: > 76.9 µM"},
      {"smiles": "CCCCn1c(O)c(C(CC)=NCCN2CCCCC2)c(=O)[nH]c1=O", "Potency": "inactive: > 76.9 µM"},
      {"smiles": "O=c1c2cc(Cl)cc(Cl)c2nc(CN2CCOCC2)n1-c1ccccc1F", "Potency": "inactive: > 76.9 µM"},
      {"smiles": "CCCCn1c(O)c(C=NCCCn2ccnc2)c(=O)[nH]c1=O", "Potency": "inactive: > 76.9 µM"},
      {"smiles": "C=CCN1C(=O)C2(C(C(=O)OCC)=C(N)Oc3ccccc32)c2c1c1ccccc1oc2=O", "note": "(stereo not drawn)", "Potency": "inactive: > 76.9 µM"},
      {"smiles": "COc1ccc(C(=O)N2CCCC2=O)cc1", "Potency": "inactive: > 76.9 µM"},
      {"smiles": "CCCCn1c(=O)c(C(=O)Nc2nc3ccccc3[nH]2)c(O)c2ccccc21", "Potency": "inactive: > 76.9 µM"},
      {"smiles": "CCCn1ncc(C(=O)O)c1C", "Potency": "inactive: > 76.9 µM"},
      {"smiles": "CN(C)C(=O)Nc1cccc(OC(=O)N(C)C)c1", "Potency": "inactive: > 76.9 µM"},
      {"smiles": "CC(C(=O)N1CCC2(CC1)OCCO2)C1Sc2ccccc2NC1=O", "note": "(stereo not drawn)", "Potency": "inactive: > 76.9 µM"}
    ]}
  ]
}
